# Out of some 310,000 compounds screened, about 2,200 (0.71%) showed an effect of 50% or more. Effects have a minus sign here. Some of the results follow.
# Molecular target: human ether-à-go-go-related gene (hERG) potassium channel (human, UniProt Q12809)
# Test: primary screen, population patch clamp on CHO cells stably expressing hERG
# Chain of human ether-à-go-go-related gene (hERG) potassium channel (Q12809 whole entry, looked up): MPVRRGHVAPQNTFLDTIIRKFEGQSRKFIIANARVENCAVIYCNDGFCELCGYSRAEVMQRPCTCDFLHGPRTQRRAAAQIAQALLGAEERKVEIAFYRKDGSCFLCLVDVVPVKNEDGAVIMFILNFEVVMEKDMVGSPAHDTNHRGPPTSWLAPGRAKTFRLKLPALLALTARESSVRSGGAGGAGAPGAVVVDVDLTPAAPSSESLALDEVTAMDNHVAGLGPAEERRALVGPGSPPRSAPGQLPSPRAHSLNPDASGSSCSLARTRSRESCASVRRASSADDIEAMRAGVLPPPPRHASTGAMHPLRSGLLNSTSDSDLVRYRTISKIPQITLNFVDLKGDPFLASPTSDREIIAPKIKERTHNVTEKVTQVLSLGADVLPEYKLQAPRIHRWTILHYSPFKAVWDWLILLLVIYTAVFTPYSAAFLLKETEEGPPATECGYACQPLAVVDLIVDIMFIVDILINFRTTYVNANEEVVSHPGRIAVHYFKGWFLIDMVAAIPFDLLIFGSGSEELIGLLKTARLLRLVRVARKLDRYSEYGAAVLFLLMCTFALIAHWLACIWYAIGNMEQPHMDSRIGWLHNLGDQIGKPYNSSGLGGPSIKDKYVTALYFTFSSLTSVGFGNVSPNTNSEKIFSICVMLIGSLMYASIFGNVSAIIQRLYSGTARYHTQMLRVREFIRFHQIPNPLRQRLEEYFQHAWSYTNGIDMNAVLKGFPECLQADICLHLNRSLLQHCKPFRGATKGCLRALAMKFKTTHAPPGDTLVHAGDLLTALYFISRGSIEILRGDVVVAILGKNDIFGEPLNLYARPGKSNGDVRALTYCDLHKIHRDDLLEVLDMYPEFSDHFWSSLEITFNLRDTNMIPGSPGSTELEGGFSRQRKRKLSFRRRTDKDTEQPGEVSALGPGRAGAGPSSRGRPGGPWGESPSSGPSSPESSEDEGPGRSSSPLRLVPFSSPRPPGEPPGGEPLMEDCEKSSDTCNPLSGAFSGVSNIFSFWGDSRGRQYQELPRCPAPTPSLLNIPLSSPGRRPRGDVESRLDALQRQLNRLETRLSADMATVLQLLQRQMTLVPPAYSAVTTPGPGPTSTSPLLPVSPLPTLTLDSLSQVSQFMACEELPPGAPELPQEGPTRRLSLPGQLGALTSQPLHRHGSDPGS
row,SMILES,"hERG current change (%, negative = inhibition) at 1uM [%]"
1,COc1ccc(NC(=O)c2cccc(C#N)c2)cc1NS(=O)(=O)c1ccc(F)cc1,12.9
2,CC1CN(C(=O)c2cccn(Cc3c(Cl)cccc3Cl)c2=O)CC(C)O1 (centres unmarked),15.9
3,CCOC(=O)NC(c1cccc(Cl)c1)C1CCCCCC1=O (centres unmarked),3.02
4,NNC(=O)c1cncc(Br)c1,12.1
5,O=C(CSc1ncccn1)N1CCC(Cc2ccccc2)CC1,8.09
6,Cn1c(=O)n(C)c2cc(S(=O)(=O)NCCc3ccccc3)ccc21,18.7
7,O=C(CS)Nc1ccc2ccccc2c1,18.4
8,CC(NCC1(N2CCOCC2)CCCCC1)C(=O)Nc1ccc(Cl)cc1Cl.O=C(O)C(=O)O (centres unmarked),-44.9
9,CCN(CCCNC(=O)CCn1c(=O)[nH]c2ccsc2c1=O)c1ccccc1,10.6
10,c1ccc(Nc2nc(-c3ccncc3)cs2)cc1,9.66
11,O=C(O)c1cccc(-c2ccc(/C=N/NC(=O)c3cccnc3)o2)c1,8.89
12,CSCCC(NS(=O)(=O)c1ccccc1F)C(=O)NCc1cccs1 (centres unmarked),12.8
13,CCNC(=S)NNC(=O)c1cccnc1,15.4
14,O=C(NC1CCCCC1)c1ccc(S(=O)(=O)N2CCOCC2)cc1,8.06
15,Cl.Cn1cccc1CNCCc1ccccc1,7.61
16,OCc1ccc(N=Nc2ccccc2)cc1,4.74
17,Cc1ccc(CN(C(=O)c2csnn2)C(C(=O)NC2CCCC2)c2cccnc2)cc1 (centres unmarked),7.72
18,Cc1cccc(NC(=S)NCCCN2CCOCC2)c1,-1.73
19,COc1ccc(-n2c(C)nc3c(cnn3-c3ccc(C)cc3)c2=O)cc1,4.18
20,CC(=O)Oc1cccc(N2C(=O)C3C4C=CC(CC4)C3C2=O)c1 (centres unmarked),13.1

row,SMILES,"hERG current change (%, negative = inhibition) at 1uM [%]"
1,CN(C)S(=O)(=O)c1ccc(C(=O)Nc2ccc(CN3CCCC3)cc2)cc1,-1.22
2,COc1ccccc1/C=C/C(=O)NCCC1=CCCCC1,12.3
3,Cc1cc(C)n2[nH]c(=O)c(N=Nc3cccc(C(F)(F)F)c3)c2n1,-4.56
4,Cc1ccc(NC(=O)CN2CCOCC2)cc1,13.3
5,CCc1cc2cc3c(cc2nc1SCC(=O)Nc1cc(C)on1)OCO3,12.8
6,COc1ccc2oc(=O)c(-c3nnc(NCc4ccco4)s3)cc2c1,9.23
7,CCc1ccc(CN(C)C(=O)c2cc(COc3cccc(C(F)(F)F)c3)on2)nc1,6.84
8,CCOC(=O)C1(C)/C(=N/Nc2ccccc2)C(=O)C(=O)N1c1ccccc1 (centres unmarked),-3.13
9,COc1ccc(CCNC(=O)CN2CCC(C(N)=O)CC2)cc1,14.2
10,COc1ccc(NC(=O)C2CCN(S(=O)(=O)c3cccc4nonc34)CC2)cc1OC,9.2
11,CC(C)(C)NC(=O)C(c1cccs1)N(Cc1cccs1)C(=O)c1ccc(CN2CCOCC2)o1 (centres unmarked),12.9
12,CCCCn1c(=O)c(C(=O)Nc2ccccc2Cl)c(O)c2ccccc21,13.4
13,Cc1cc(C(=O)Nc2ccc(Br)cc2)c2ccccc2n1,15.3
14,COc1ccc(CCNC(=O)COc2ccc([N+](=O)[O-])cc2)cc1,11.2
15,COc1ccc(S(=O)(=O)N2CCN(C(=O)c3ccco3)CC2)cc1C(C)(C)C,13.1
16,COCCCN=C1NN=C(c2cc(C)n(Cc3ccccc3Cl)c2C)CS1,7.62
17,O=C(N/N=C/c1ccncc1)c1ccccc1[N+](=O)[O-],8.18
18,C/C(=N\O)C(=O)OC1CC(C)CCC1C(C)C (centres unmarked),-0.922
19,CC(C)NC(=O)NC(=O)CSc1nnc(C(F)(F)F)n1C,10.2
20,CCOc1ccccc1NC(=O)CCNC(=O)c1ccco1,14.5

row,SMILES,"hERG current change (%, negative = inhibition) at 1uM [%]"
1,CCN(Cc1ccncc1)C(=S)Nc1ccc(Cl)cc1,9.9
2,Cc1ccc(S(=O)(=O)NN2C(=O)/C(=C/c3cccnc3)SC2=S)cc1,8.11
3,O=S(=O)(c1ccc(Cl)cc1)N1CCN=C1SCc1cccnc1,7.2
4,NC(=O)C1CCCN(C(=S)Nc2cccc3ccccc23)C1 (centres unmarked),0.957
5,C#CC[N+](C)(C)CCN1C(=O)C2C(c3ccccc3)C=CC(c3ccccc3)C2C1=O.[Br-] (centres unmarked),9.67
6,Cc1noc(C)c1C(=O)NCCCc1ccccc1,13
7,CN(C)S(=O)(=O)c1cccc(NC(=S)N/N=C/C(=O)c2ccccc2)c1,-2.1
8,COc1ccc(Cl)cc1S(=O)(=O)Oc1ccc(NC(C)=O)cc1,-58.8
9,COc1ccc(NC(=O)C#Cc2ccccc2)cc1,14.6
10,COC(=O)CN1C(=O)c2cccc3cccc1c23,3.72
11,O=C(O)c1c2c(nc3ccccc13)/C(=C/c1cccc([N+](=O)[O-])c1)CCC2,15.8
12,C=CCn1c(SCc2cccc(F)c2)nc2cc(C(=O)N3CCC(C(N)=O)CC3)ccc2c1=O,4.53
13,O=C(COC(=O)Cc1ccc(S(=O)(=O)N2CCOCC2)s1)Nc1ccc2c(c1)OCO2,15.1
14,Cc1ccc2nc(N(CCCN(C)C)C(=O)c3ccco3)sc2c1.Cl,-9.63
15,O=C(COc1ccccc1)N1CCN(C(=O)COc2ccccc2)CC1,-1.64
16,[N-]=[N+]=CC(=O)C(O)(c1ccccc1)C(Cl)c1ccccc1 (centres unmarked),15.4
17,COc1ccc(C(=O)C23CN4CN(CN(C4)C2)C3)cc1,8.66
18,CCCS(=O)(=O)N1CCN=C1SCc1cccc(C)c1,11.3
19,O=C(COC(=O)CC1SC(N2CCCC2)=NC1=O)Nc1c(F)c(F)c(F)c(F)c1F (centres unmarked),5.29

# From PMC4336329 (PLoS ONE, 2015)
